The results in this text go back to the RNAGym collection of RNA variant scans (doi:10.1101/gad.245936.114).

Variants at the floor of the assay are shown more often than the library holds them.

B1: tRNA (parent)
chain: CUCUCGGUAGCCAAGUUGGUUUAAGGCGCAAGACUUUAAUUUAUCACUACGAAAUCUUGAGAUCGGGCGUUCGACUCGCCCCCGGGAGAUUUUUUCCUCGAGCAA

In the data set the parent is B1. Nature of the data set: nonsense suppression (GFP-seq) (ratio to wild type); higher = more function; SUP4oc tRNA, yeast GFP reporter sort-seq. In outline:
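Nonsense suppression (GFPSEQ) is the median GFP/RFP ratio of each sorting bin, weighted by the variant's estimated share of cells in that bin and expressed relative to the unmutated parent tRNA. Yeast strains carried genome-integrated variants of an ochre-suppressor tRNA from a library with ~3% random mutations, plus a galactose-driven GFP ochre reporter and RFP, and were grown in raffinose/galactose medium containing 80 mg/L adenine. Cells were sorted into GFP/RFP bins, each bin was Illumina-sequenced (phred ≥30), and variants were kept only with ≥100 reads and ≥30 cells.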
Regarding CUCUCGGUAGCCAAGUUGGUUUAAGGCACAAGAGUUUAAUUUAUCACUACGAAAUCUUGAGAUCGGGCGUUCGACUCACCCCCGGGAGAUUUUUUCCUCGAGCAA [G28A C34G G78A], the nonsense suppression is at most 0.026.
In the case of CUCUCGGUAGCCAAGUUGGUUUAAGGCGCAAGACUUUAAUUUAUCACUACGAAAUAUUGAGAUCGGGCGUACUACUCGCCCCCGGGAGAUUUUUUCCUCGAGCAA [C56A U71A G73U] it was at most 0.026; in that of CUCUCGGUAGCCAAGUUGGUUUAAGGCGCAAGACUUUAAUUUAUCACUACGAAAUCUUCAGAUCGGGCGUACGACUCGCCCCCGGGAGAUUUUUUCCUCGAGCAA [G59C U71A], at most 0.026.
In the case of CUCUCGGUGGCCAAGUUGGUUUAAGGCGCAAGUCGUUAAUUUAUCACUACGAAAUCUUGAGAUCGGGCGUCCGACUCGCCCCCGGGAGGUUUUUUCCUCGAGCAA [A9G A33U U35G U71C A89G] it was at most 0.026; in that of GUCUCGGUAGCCAAGUUGGUCUCAGGCGCAAGACUUUAAUUUAUCACUACGAAAUAUUGAGAUCGGGCGUUCGACUCGCCCCCCGGAGAUUUUUUCCUCGAGCAA [C1G U21C A23C C56A G84C], at most 0.026; in that of CUCUCGGUAGCCAAGUCGGUUUAAGGCGGAAGACUUUAAUUUAUCACUACGAAAUCUUGAGAUCGGGCGUUCGACUCGCCCCCGGGAGAUUUUUUCCUCGAGCAA [U17C C29G], at most 0.026.
In the case of CUCUCGGUAGCCAAGUUGGUUUAAGGGGCAAGACUUUAAUUUAUCACUACGAAAACUUGAGAUCGGGCCUUCGACUCGCCCCCGGGAGAUUUUUUCCUCGAGCAA [C27G U55A G69C] it was at most 0.026.
As for CUCUCGGUAGCCAAGUUGGUUUAAGUCGCACGACUUUAAUUUAUCACUACGAAAUCUUGAGAUCCGGCGUUCGACUCGCCCCCGGGAGAUUUUUUCCUCGAGCAA [G26U A31C G65C], the nonsense suppression was at most 0.026.
In the case of CUCUCGGUAGCCAAGUUGGUUUAAGUCGCAAGACUUUAAUUUAUCACUACGAAAUCUUGAGAUCGGGCGUUCGACUCGCCCCCGGGAGUUUUUUUCCUCGAGCAA [G26U A89U] it was at most 0.026; in that of CGCUCGGUAGCCAAGUUGGUUUAAGGCACAAGACUUUAAUUUAUCACUACGAAGUCUUGAGAUCGGGGGUUCGACUCGCCCCCGGGAGAUUUUUUCCUCGAGCAA [U2G G28A A54G C68G], at most 0.026; in that of CUCUCGGUAGCCAAUAGGGUUUAAGGCGCAAGACUUUAAUUUAUCACUACGAAAUCCUGAGAGGGGUCGUUCUACUCGCCCCCGGGAGAUUUUUUCCUCGAGCAA [G15U U16A U17G U57C U63G C64G G67U G73U], at most 0.026.
With CUCUCGGUAGCCAAGUUGGUUUAAGGCGCAAGACUUUAAUUUAUCACUACGAAAUCUUGAGAUCGGGGGUGCGACUCGCCCCCAGGAGAUUUUUUCCUCGAGCAA [C68G U71G G84A] the figure was at most 0.026; with CUCUAGGUAGCCAAGUUGGUUUACGGCGCAAGACUUUAAUUUAUCACUACGAAAUCUUGAGAUCGGGCGUUCGACUCGCCCCCGGGAGAUUUUUUCCUCGAGCAA [C5A A24C], 0.0269.
With CUCUCGGUAGCCAAGUUAGUUUAAGGCGCAAGACUUUAAUUUAUCACUACGAAAUCUUGAGAUCGGCCGUUCGACCCGCCCCCCGGAGAUUUUUUCCUCGAGCAA [G18A G67C U76C G84C] the figure was at most 0.026.
For the variant CUCUCCGUAGCCAAGUUGGUUUAAAGCGCAAGACUUUAAUUUAUCACUACGAAAUCUUGAGAUCUGACGUUCGACUCCCCCCCGGGAGAUUUUUUCCUCGAGCAA [G6C G25A G65U G67A G78C], the nonsense suppression was at most 0.026.
With CUCUCGGUAGCCAAGUUGGUUUAAGGCCCAAGUCUUUAAUUUAUCACUACGAAAUCUUGAGAUCGGGCGUUCGACUCGCCCUCGGGAGUUUUUUUCCUCGAGCAA [G28C A33U C82U A89U] the figure was at most 0.026; with CUCUCGGUAGCCAAGUUGGUUUAAGGCGCAAGACUUUAAUUUAUCACUACGAAUUCUUGAGAUCCGGCGUUCGACUCGCCCCCGGGAGAUUUUUUCCUCGAGCAA [A54U G65C], at most 0.026; with CUCUCGGUACCCAAGUUGGUUUAUGGCGCAAGACUUUAAUUUAUCACUACGAAAUCUUGAGAUCCGGCGUUCGACUCGCCCCCGGGAGAUUUUUUCCUCGAGCAA [G10C A24U G65C], at most 0.026.
As for CUCUCGGUAGCCAAGCUGGUUUAAGGCGCAAGACGUUAAUUUAUCACUACGAAAUCUUGAGAUCGGGCGUUCGACUCGCCCCCGGGAGAUUUUUUCCUCGAGCAA [U16C U35G], the nonsense suppression was at most 0.026.
In the case of CUCUCGGUAGCCAAGUUGGUUUAAGGCGCAAGCCUUUAAUUUAUCACUACGAAAUGUUGAGAUCGGGCGUUCGACUCGCCUCCGGGAGAUUUUUUCCUCGAGCAA [A33C C56G C81U] it was at most 0.026; in that of CUCACGGUAGCCAAGUUGGUUUAAGGCGCAUGACUUUAAUUUAUCACUACGAAAUCUUGAGAUCGGGCGUUCGACUCGCCCCCGGGAGAUUUUUUCCUCGAGCAA [U4A A31U], 0.0312; in that of CUCUCGGUAGCCAAGUUGUUUUAAGGCGCAAGACUUUAAUUUAUCACUACGAAAUCUUGAGCUCGGGGGUUCGACUCGCCCCCGGGAGAUUUUUUCCUCGAGCAA [G19U A62C C68G], at most 0.026.
CUCUCGGUAGCCAAGUUUCUUUUAGUCGCAAGAUUUUAAUUUAUCACUACGAAAUCUUGAGCUCGGGCGUUCGACUCGCCCCCGGGAGAUUUUUUCCUCGAGCAA [G18U G19C A23U G26U C34U A62C]: the nonsense suppression was at most 0.026.
In the case of CUCUCGGCAGCCAAGUUGGUUUAAGGCGCAAGACUUUAAUUUAUCACUACGAAAUCUUGAGUUCGGGCGUUCGACUCCCCCCCGGGAGAUUUUUUCCUCGAGCAA [U8C A62U G78C] it was at most 0.026; in that of CUCUCGGUAGCCAAGUUGGUUUAAGGCGCAUGACUUUAAUUUAUCACUACGAAAUCUUGAGAUCAGGCAUUCGAGUCGCCCCCUGGAGAUUUUUUCCUCGAGCAA [A31U G65A G69A C75G G84U], at most 0.026; in that of CUCUCGGUAGCCAGGUUGGUUUGAGGCGCAAGACUUUAAUUUAUCACUACGAAAUCUUGAGAUCGGGCGUUCGACUCGCCCCCGGGAGAUUUUUUCCUCGAGCAA [A14G A23G], at most 0.026.
Consider CUCUCGGUAGCCAAGUUGGUUUAAAGCGCAAGACUUUAAUUUAUCACUACGAAACCUUGAGUUCGGGCGUUCGACUCGCCCCCGGGAGAUUUUUUCCUCGAGCAA [G25A U55C A62U], for which the nonsense suppression is at most 0.026.
